Measurements published in the supplement of paper PMC3334620.
Over roughly 33,000 sequences, “E-score (-0.5 to 0.5)” has its median near -0.043; the highest 2% begin near 0.37. Some of the results follow.

target: T1, Upc2 (UniProt Q12151); test: PBM E-score (8-mer binding enrichment) (E-score (-0.5 to 0.5)); higher = stronger / more preferred TF binding; most listed sequences are background and not binding sites; details: protein concentration: 200 nM; construct: GST-full length
T1 sequence: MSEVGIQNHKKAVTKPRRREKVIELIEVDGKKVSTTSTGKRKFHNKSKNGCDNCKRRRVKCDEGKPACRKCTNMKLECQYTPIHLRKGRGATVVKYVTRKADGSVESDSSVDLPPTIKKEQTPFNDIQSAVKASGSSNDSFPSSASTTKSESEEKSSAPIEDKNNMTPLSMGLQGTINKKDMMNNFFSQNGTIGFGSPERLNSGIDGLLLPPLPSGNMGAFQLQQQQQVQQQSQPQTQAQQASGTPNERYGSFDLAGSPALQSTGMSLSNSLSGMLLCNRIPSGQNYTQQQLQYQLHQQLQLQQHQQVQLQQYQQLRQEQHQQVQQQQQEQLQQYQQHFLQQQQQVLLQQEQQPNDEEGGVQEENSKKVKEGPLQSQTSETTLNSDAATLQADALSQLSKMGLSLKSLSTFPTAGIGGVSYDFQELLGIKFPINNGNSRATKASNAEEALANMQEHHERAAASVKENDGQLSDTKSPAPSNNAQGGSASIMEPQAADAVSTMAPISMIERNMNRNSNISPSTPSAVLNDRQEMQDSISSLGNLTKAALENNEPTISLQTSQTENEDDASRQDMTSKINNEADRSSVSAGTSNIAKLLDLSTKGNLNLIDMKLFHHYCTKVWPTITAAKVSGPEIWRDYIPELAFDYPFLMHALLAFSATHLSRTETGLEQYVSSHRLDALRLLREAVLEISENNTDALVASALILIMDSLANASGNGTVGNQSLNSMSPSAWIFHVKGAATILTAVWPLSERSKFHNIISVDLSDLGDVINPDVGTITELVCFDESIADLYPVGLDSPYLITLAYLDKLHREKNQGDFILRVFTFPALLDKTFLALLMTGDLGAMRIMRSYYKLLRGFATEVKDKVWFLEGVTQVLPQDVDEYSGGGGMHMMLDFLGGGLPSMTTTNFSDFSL
Outline: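 Using PURExpress in vitro transcription/translation, GST-tagged yeast transcription factors were made in full-length or DNA-binding-domain form. These were applied at about 100-200 nM to double-stranded universal all-10-mer Agilent arrays, and bound protein was detected with fluorescent anti-GST. Scans were normalised with masliner before the Universal PBM Analysis Suite assigned E-scores to ungapped eight-base words pooled with their reverse complements.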

Sequence | PBM E-score
CGGGACGA | -0.15
ACTTAAGC | 0.0705
CCAGGGCC | -0.25
GGAATGGA | -0.231
AGACCGAG | -0.0307
GCGAATAA | 0.088
AAGTCCAG | -0.142
CTTCTGAA | -0.0964
ACATGGCG | -0.138
AAGTTAAA | -0.0841
ATAGGTAG | -0.0378
CCGCGACG | 0.0123
GCTTGCAA | -0.0609
TAATCTCA | -0.058
ACGGGCTA | 0.0889
CACTCGAC | -0.0887
GGGGTATA | -0.102
CGGCATTC | -0.0564
GGACAAAA | -0.0784
ATGCACCC | -0.0668
AGCCCACA | -0.12
ACATGGAC | -0.13
TCATTTCA | -0.066
CAAATGTC | -0.143
CTGAGAAC | 0.0245

Sequence | PBM E-score
ATTGGCGC | -0.0236
CTGGGAAG | -0.0394
AAAGGGCC | -0.285
ACACGCCA | 0.0338
ACTCCCGC | -0.0959
ATGTAAAC | 0.27
CGGAGCAA | -0.132
CGGATCTA | -0.0176
CTCTTACA | 0.0232
ACAGATAT | 0.0429
AAACTAAG | 0.0307
ACGTTTCG | 0.192
CATCAAAA | 0.0504
GAATAGGA | 0.00265
ATCATCAT | 0.0157
GTTCGCCA | 0.0268
GCCCGCAA | -0.00852
AAAGGACT | -0.23
TACGCCTA | 0.0355
AGAGTTTG | -0.13
GGGTGTCA | -0.0944
CCCCGACC | -0.084
CGGCAACA | 0.0297
AATAATGC | 0.151
CGTCACCA | 0.0655

Sequence | PBM E-score
AAACCTGC | -0.0886
TACGAAAA | 0.411
ACTAAAAC | 0.00593
AGCTGTCC | -0.233
TAGAGCGA | 0.0675
GGATGGTA | 0.0248
GGACATTA | 0.01
ACGTAACC | 0.157
CAATGATG | -0.162
CCCGGTGA | -0.17
AGTCATCA | -0.266
ATCGACTC | -0.00472
CGTCGCAG | 0.02
AGCCCAAC | -0.113
ATCTTGAG | -0.261
GGGACGAA | -0.198
CAGGGCGA | 0.0606
GGAGATAC | -0.0204
CGTGACAA | -0.0597
CTTCCCGA | -0.007
AACGCATT | 0.144
ACTGACCG | -0.00173
CATCTTGA | -0.234
TAAAAGTA | -0.0192
AATCAAGA | -0.0577

Sequence | PBM E-score
ATGGCCCA | 0
CCCCTCCC | -0.237
CGTTACGA | 0.417
GGTTCTGA | 0.144
GCATGCGA | 0.182
GCCGTGAC | -0.162
TGATAAAA | 0.0875
GATTTCAA | -0.133
ATAGGACG | -0.208
AGCCACCT | -0.137
GGCTACCA | -0.0831
ATGATTAG | -0.0423
CAGATCCA | -0.177
CAGGTGAA | -0.0656
CCAGCGAA | -0.136
CCGTACTC | 0.108
GGTCACCA | -0.196
CTATCGAG | -0.0943
CGTGGGGC | -0.141
AAGCTAAT | 0.0748
AGTTATCG | 0.196
CTGTGTAC | 0.269
ACCAACAT | 0.102
GCCGCCTA | -0.276
GTCAACAA | -0.182

Sequence | PBM E-score
AGCCAGCC | -0.147
ACTGTCTG | -0.278
AAATAGTA | -0.0147
CCAAAACC | -0.0136
AATGCTGT | -0.0791
AGGCTAAT | -0.0165
CACGCTTA | 0.0593
CATGTACC | -0.262
GCCTGCCA | -0.317
AGTGTGCC | -0.217
CGGGGGTA | -0.14
CCCGAAAA | 0.00574
GCCGACAC | -0.116
GAGGATTA | -0.0558
GAACTTGC | -0.108
CTTCGATA | 0.116
ACCCGGAG | 0.0518
GCAGCACA | -0.0788
GGCAGTAA | -0.0007
CATAAGAC | 0.0365
ATGGGTAG | 0.00021
TGACCGAA | 0.127
ACTGTAAA | 0.103
AAACCAAA | 0.118
GAGAGCAA | -0.166

Sequence | PBM E-score
AGCTTTAA | 0.0562
GAATCGTA | 0.387
AGATTACA | -0.017
GCTAAACC | 0.03
CCTCAGCC | -0.267
GGTCAACC | -0.0842
GAGCCGCC | -0.0701
CTGTCCCA | -0.016
CTCGTCAA | 0.0036
AGTTATAC | 0.333
ACCGAGAC | 0.152
ACTAAGAC | -0.0582
GTTCGCGA | 0.313
CGTCGAAA | 0.0795
GCTTCAAC | -0.0299
CCCTCCGG | -0.155
GGCCGAAC | -0.019
GCATGTCA | -0.0782
CAACCGTG | 0.0422
CCCACATC | -0.0941
ACGAGTAC | 0.419
AGAGGAGG | -0.155
ATACGCCA | 0.324
CACGCCCA | -0.24
CGGCGGGA | -0.0655

Sequence | PBM E-score
AAGGAATA | 0.0137
CCAAAGAG | -0.192
AAATAACC | -0.205
AATTTTGG | -0.107
GAGGTGAA | -0.0208
AGTCGTCA | -0.167
GGCAAAAA | -0.0254
AAAACGCG | 0.193
ACATCTCT | -0.0876
AACATTTG | -0.162
CTAGCTTC | -0.105
CGCCAGTA | 0.0729
GATCGTAC | 0.442
AAGGTCCG | -0.0279
GATTCGCC | -0.077
CAGTTTCC | -0.137
TGGCCAAA | -0.0519
ACCACCTC | -0.111
GGAGGGTA | -0.131
CCCTACAA | -0.101
CTGTAAAC | 0.192
TAGAGGGA | -0.246
